{"source": "PubChem BioAssay AID1476", "about": "(National Center for Advancing Translational Sciences (NCATS), 2009)", "note": "“And” between values parts separate entries of the source, which are not always exact repeats. Equal entries are not always repeated. Hit rate of the full screen: of about 200,000 compounds, about 4,500 (2.2%) were called active. The shares of active, inactive and inconclusive entries below differ from those in the screen. The call rests on the fitted dose curve; in most records, active means well fitted inhibition curve with a large enough effect; inconclusive means small, poorly fitted or top-dose-only effect, or effect the other way; inactive means flat fitted curve, though single readings scatter. Potencies of inconclusive entries are doubtful fits and often do not repeat. Potency means the concentration at half of the fitted maximal effect; tags describe the fitted curve by direction and shape.", "data": [{"molecular_target": "Cruzipain (Trypanosoma cruzi) (UniProt P25779)", "sequence (P25779 whole entry, looked up)": "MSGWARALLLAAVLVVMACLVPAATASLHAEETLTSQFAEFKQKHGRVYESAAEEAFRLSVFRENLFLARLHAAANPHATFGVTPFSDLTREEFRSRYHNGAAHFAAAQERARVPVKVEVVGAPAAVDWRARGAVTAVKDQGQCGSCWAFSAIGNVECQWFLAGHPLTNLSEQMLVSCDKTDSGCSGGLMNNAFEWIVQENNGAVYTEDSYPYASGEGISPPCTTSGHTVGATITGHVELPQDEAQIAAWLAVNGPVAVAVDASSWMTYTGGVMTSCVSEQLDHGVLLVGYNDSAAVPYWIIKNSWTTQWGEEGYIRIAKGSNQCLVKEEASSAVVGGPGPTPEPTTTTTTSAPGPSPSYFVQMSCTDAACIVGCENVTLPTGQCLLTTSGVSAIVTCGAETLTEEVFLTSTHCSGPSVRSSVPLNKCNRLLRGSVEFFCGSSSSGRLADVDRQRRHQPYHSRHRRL", "assay": "qHTS Assay for Promiscuous and Specific Inhibitors of Cruzain (without detergent); further: nearly all actives have a fitted effect of over 40% in size;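 on max response, negative = inhibition: plate controls were enzyme without inhibitor for no effect and buffer without enzyme for full effect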", "settings": "purified cruzain, Z-FR-AMC fluorescence, no detergent", "summary_of_the_method": "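Purified cruzain at 1.5 nM, pre-incubated 15 min with compound at room temperature in 100 mM sodium acetate pH 5.5, 5 mM DTT, 0.00005% Triton X-100. Reaction started with 2 uM Z-FR-AMC; AMC fluorescence increase over 60 s gives rate.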", "values": [{"smiles": "O=C(NCc1cccnc1)c1cc(Sc2cccc(Cl)c2)nc2ccccc12", "Potency": "inconclusive: 39.8 µM [activator, single point]"}, {"smiles": "COC(=O)c1sc(-c2ccccc2)cc1NC(=O)Nc1ccc(Cl)cc1", "Potency": "inconclusive: 3.16 µM [inhibitor, full curve, poor fit]"}, {"smiles": "Cn1c(=O)c2c(nc(CN3CCN(c4ccccc4)CC3)n2Cc2c(F)cccc2Cl)n(C)c1=O", "Potency": "inconclusive: 31.6 µM [activator, single point]"}, {"smiles": "COc1cc2nc(Nc3cccc(C)c3)nc(N)c2cc1OC", "max response, negative = inhibition": "inactive: 3.48%"}, {"smiles": "CCC(C)Sc1nc2c(c(=O)[nH]c(=O)n2C)n1CC(O)COc1ccccc1C", "note": "(stereo not drawn)", "Potency": "inconclusive: 31.6 µM [activator, single point]"}, {"smiles": "CCC(=O)n1nc(NCc2ccc(OC)c(OC)c2)nc1NCc1ccc(OC)c(OC)c1", "Potency": "inconclusive: 31.6 µM [activator, single point]"}, {"smiles": "c1ccc(Cc2nnc3sc(Nc4ccccc4)nn23)cc1", "Potency": "active: 25.1 µM"}, {"smiles": "CN(C)c1ccc(-c2nc(-c3cccs3)c(-c3cccs3)[nH]2)cc1", "Potency": "inconclusive: 39.8 µM [inhibitor, single point]"}, {"smiles": "O=C(NCCc1ccc(Cl)cc1)c1ccc2c(c1)N(Cc1ccc(F)cc1)C(=O)CS2", "Potency": "inconclusive: 39.8 µM [inhibitor, single point]"}, {"smiles": "COc1ccc(-c2cc3c(=O)n(CC(=O)Nc4cc(F)ccc4F)ccn3n2)cc1OC", "max response, negative = inhibition": "inactive: -3.82%"}, {"smiles": "Cc1ccc(-c2nnn3c2nc(NCCc2ccc(S(N)(=O)=O)cc2)c2ccccc23)cc1", "Potency": "inconclusive: 10 µM [inhibitor, partial curve, poor fit]"}, {"smiles": "Cc1noc(/C=C/c2ccco2)c1S(=O)(=O)N1CCC(C(=O)Nc2ccc(Cl)cn2)CC1", "Potency": "active: 6.31 µM"}, {"smiles": "CCNC(=O)NC(=O)C(C)Sc1nc2cc(C(=O)OC)ccc2c(=O)n1-c1ccccc1", "note": "(stereo not drawn)", "Potency": "inconclusive: 39.8 µM [activator, single point]"}, {"smiles": "O=S(=O)(c1ccc(NC(=S)NCCC(c2ccccc2)c2ccccc2)cc1)N1CCOCC1", "Potency": "active: 25.1 µM"}, {"smiles": "CCOC(=O)C1CCCN(S(=O)(=O)c2cc(Br)cc3c2N(C(C)=O)CC3)C1", "note": "(stereo not drawn)", "Potency": "inconclusive: 39.8 µM [activator, single point]"}, {"smiles": "CS(=O)(=O)N(CC(=O)N1CCc2ccccc2C1)Cc1ccc(Cl)cc1", "Potency": "inconclusive: 31.6 µM [activator, single point]"}, {"smiles": "Cc1ccc(N2C(=O)C3C(C(=O)c4ccccc4)=NN(c4ccccc4)C3C2=O)cc1", "note": "(stereo not drawn)", "Potency": "active: 15.8 µM"}, {"smiles": "CCOc1ccc(-c2cc(NC(=O)Nc3ccc(Cl)cc3)c(C(=O)OC)s2)cc1", "max response, negative = inhibition": "inactive: -6.17%"}, {"smiles": "Cc1cc(C(=O)CSc2nnc(-c3cccnc3)n2-c2ccccc2)c(C)n1CC1CCCO1", "note": "(stereo not drawn)", "Potency": "inconclusive: 39.8 µM [activator, single point]"}, {"smiles": "CC(=O)OC[C@]12C[C@H](OC(=O)CC(C)C)C(C)=C[C@H]1O[C@H]1[C@H](O)[C@@H](OC(C)=O)[C@@]2(C)[C@]12CO2", "Potency": "inconclusive: 39.8 µM [activator, single point]"}, {"smiles": "CC(=O)Nc1c(S(=O)(=O)c2ccccc2)c2nc3ccccc3nc2n1Cc1ccccc1", "max response, negative = inhibition": "inactive: 29.1%"}, {"smiles": "COc1ccccc1C(=O)OCc1cc(=O)n2nc(-c3cccs3)sc2n1", "max response, negative = inhibition": "inactive: -3.73%"}, {"smiles": "CC(=O)Nc1cccc(Nc2nc3ccccc3n3c(C)nnc23)c1", "max response, negative = inhibition": "inactive: 3.43%"}, {"smiles": "COc1ccc(-c2nc(NC(=O)CSc3nnc(C)s3)ns2)cc1", "Potency": "inconclusive: 39.8 µM [inhibitor, single point]"}, {"smiles": "CCn1cc(C(=O)NCC2CCCO2)c(=O)c2cc(S(=O)(=O)N3CCCCCC3)ccc21", "note": "(stereo not drawn)", "Potency": "inconclusive: 39.8 µM [activator, single point]"}, {"smiles": "O=C(Nc1ccc(/C=C/c2nc3ccccc3o2)cc1)c1cccc(C(F)(F)F)c1", "Potency": "active: 7.94 µM"}, {"smiles": "CCOC(=O)/C=c1\\s/c(=C\\c2ccccc2OC)c(=O)n1CC(=O)N1CCOCC1", "Potency": "inconclusive: 31.6 µM [activator, single point]"}, {"smiles": "O=c1cc(-c2cc(O)c(O)c(O)c2)oc2cc(O)cc(O)c12", "Potency": "inconclusive: 15.8 µM [inhibitor, single point]"}, {"smiles": "CN(C)c1oc(-c2ccc(COc3ccccc3)o2)nc1C#N", "Potency": "inconclusive: 31.6 µM [activator, partial curve, poor fit]"}, {"smiles": "COc1ccc2c(c1)CCc1sc(NC(=O)c3ccc(Br)cc3)nc1-2", "Potency": "inconclusive: 39.8 µM [inhibitor, single point]"}, {"smiles": "O=C(CSc1ccc(Cl)cc1)Nc1ccc(-c2nc3ccccc3[nH]2)cc1", "Potency": "active: 20 µM"}, {"smiles": "O=C(C1c2ccccc2Oc2ccccc21)N1CCN(c2ccc(Cl)cc2)CC1", "Potency": "inconclusive: 39.8 µM [inhibitor, single point]"}, {"smiles": "Cc1ccc(NC(=S)N/N=C2/CCCc3c(C)cc(C)cc32)cc1", "Potency": "active: 31.6 µM"}, {"smiles": "CCOC(=O)CN(C(=O)CSc1nnc2c(n1)[nH]c1ccc(OC)cc12)c1ccc(F)cc1", "Potency": "inconclusive: 39.8 µM [activator, single point]"}, {"smiles": "CCOc1ccccc1NC(=O)N1CCN(S(=O)(=O)c2ccc3c(ccn3C)c2)CC1", "max response, negative = inhibition": "inactive: -18.5%"}, {"smiles": "COc1ccc2c(c1)c1c(c(=O)n(CCc3ccccc3)c(=O)n1Cc1ccc(Cl)cc1)n2C", "max response, negative = inhibition": "inactive: -0.0339%"}, {"smiles": "O=S(=O)(c1ccccc1C(F)(F)F)N1CCN(S(=O)(=O)c2ccccc2C(F)(F)F)CC1", "Potency": "active: 20 µM"}, {"smiles": "CCOc1ccc2nc(NC(=O)c3ccc(S(=O)(=O)N4CCOCC4)cc3)sc2c1", "Potency": "inconclusive: 25.1 µM [activator, partial curve]"}, {"smiles": "Cc1cccc(CCNS(=O)(=O)c2ccc(S(=O)(=O)N3CCCCC3)cc2)c1", "Potency": "inconclusive: 39.8 µM [inhibitor, single point]"}, {"smiles": "COc1cc(NC(=O)N2CCN(c3cc(-c4noc(C)n4)ccc3C)CC2)cc(OC)c1OC", "Potency": "inconclusive: 31.6 µM [activator, single point]"}, {"smiles": "O=C(c1cc2nc(-c3ccccc3)cc(-c3ccccc3)n2n1)N1CCC2(CC1)OCCO2", "Potency": "inconclusive: 31.6 µM [activator, single point]"}, {"smiles": "Nn1cnnc1N/N=C/c1cc([N+](=O)[O-])c(Cl)cc1Cl", "Potency": "inconclusive: 31.6 µM [inhibitor, single point]"}, {"smiles": "Cn1c(SCC(=O)c2ccc3c(c2)Cc2ccccc2-3)nnc1-c1cccc(N)c1", "Potency": "inconclusive: 39.8 µM [activator, single point]"}, {"smiles": "Cc1ccc(Cn2c(SCC(=O)N3CC(=O)Nc4ccccc43)nc3ccccc3c2=O)cc1", "Potency": "inconclusive: 39.8 µM [inhibitor, single point]"}, {"smiles": "CCCOc1ccc(C2C(=O)N(C3CCCCCC3)CC(=O)N2CCCOCC)cc1OC", "note": "(stereo not drawn)", "Potency": "inconclusive: 39.8 µM [activator, single point]"}, {"smiles": "CCOc1ccccc1N1CC(c2nc3ccccc3n2CCOc2ccc(C(C)(C)C)cc2)CC1=O", "note": "(stereo not drawn)", "Potency": "inconclusive: 3.98 µM [activator, single point]"}, {"smiles": "CCOc1ccccc1Nc1nc(-c2sc(NC(=O)c3ccc([N+](=O)[O-])cc3)nc2C)cs1", "Potency": "active: 6.31 µM"}, {"smiles": "CON(C)c1nc(OCCNC(=O)COc2ccc(Cl)cc2C)nc(N(C)C)n1", "Potency": "inconclusive: 39.8 µM [activator, single point]"}, {"smiles": "CCOP(=O)(OCC)C(NC(=O)c1cccc2ccccc12)C(Cl)(Cl)Cl", "note": "(stereo not drawn)", "Potency": "inconclusive: 1.58 µM [activator, single point]"}, {"smiles": "COC(=O)c1cc2c(s1)-c1ccccc1OC2", "Potency": "inconclusive: 39.8 µM [activator, single point]"}, {"smiles": "O=C(/C=C/c1ccccc1)N1CCN(Cc2cc(=O)n3nc(-c4ccccc4)sc3n2)CC1", "max response, negative = inhibition": "inactive: 0.87%"}, {"smiles": "O=C1c2cccc(OCC(=O)N3N=C(c4cccs4)CC3c3ccc(F)cc3)c2CCN1Cc1ccccc1", "note": "(stereo not drawn)", "Potency": "active: 12.6 µM"}, {"smiles": "Cc1ccc(S(=O)(=O)N2CCC(=O)N(CCOCc3ccc(C(F)(F)F)cc3)CC2)cc1", "Potency": "inconclusive: 25.1 µM [activator, partial curve] and inconclusive: 22.4 µM [activator, single point]"}, {"smiles": "CCC(C)[C@@H](NC(=O)OC(C)(C)C)c1nnc(S(=O)(=O)Cc2cccc(C)c2)o1", "note": "(stereo partly drawn)", "Potency": "active: 7.94 µM"}, {"smiles": "Cc1cccc(N2CCN(C(=O)C3CCN(S(=O)(=O)c4ccc5c(c4)oc(=O)n5C)CC3)CC2)c1C", "Potency": "inconclusive: 39.8 µM [activator, single point]"}, {"smiles": "CCCc1nn2c(C)c(-c3ccccc3)nc2s1", "max response, negative = inhibition": "inactive: 13.3%"}, {"smiles": "O=C(Nc1nc(-c2ccc(Br)cc2)ns1)c1ccccc1F", "Potency": "inconclusive: 31.6 µM [inhibitor, single point]"}, {"smiles": "CCCCOc1ccc(CNC(=O)c2ccc(NC(=O)N3CCSc4ncccc43)cc2)cc1", "Potency": "inconclusive: 25.1 µM [inhibitor, single point]"}, {"smiles": "Cc1ccc(-n2ncc(C(=O)N3CCC(c4ccccc4)C3)c2C2CCN(C(=O)OC(C)(C)C)CC2)cc1", "note": "(stereo not drawn)", "Potency": "inconclusive: 6.31 µM [activator, single point]"}, {"smiles": "Cc1ccc(C)c(CN2C(=O)c3ccccc3S(=O)c3ccc(C(=O)N(C)Cc4ccccc4)cc32)c1", "note": "(stereo not drawn)", "max response, negative = inhibition": "inactive: -0.698%"}, {"smiles": "CC(=O)c1ccc(NC(=O)COC(=O)c2c3c(nc4ccccc24)/C(=C\\c2cccs2)CCC3)cc1", "Potency": "active: 7.94 µM"}, {"smiles": "N[C@H]1[C@@H](C(=O)O)[C@H]2C=C[C@H]1C2", "max response, negative = inhibition": "inactive: 9.55%"}, {"smiles": "COc1ccc2cc(CN(CC3CCCO3)S(=O)(=O)c3ccccc3Cl)c(=O)[nH]c2c1", "note": "(stereo not drawn)", "Potency": "inconclusive: 39.8 µM [activator, single point]"}]}]}
